# Test results from the supplement of paper PMC8728848.
# Some of the results follow.
# B1: MGL6A (Homo sapiens) (protein)
# chain: MTRTYENFQYLENKVKVQGFKNGPLPLQSLLQRLCSGPCHLLLSLGLGLLLLVIICVVGFQNSKFQRDLVTLRTDFSNFTSNTVAEIQALTSQGSSLEETIASLKAEVEGFKQERQAVHSEMLLRVQQLVQDLKKLTCQVATLNNNGEEASTEGTCCPVNWVEHQDSCYWFSHSGMSWAEAEKYCQLKNAHLVVINSREEQNFVQKYLGSAYTWMGLSDPEGAWKWVDGTDYATGFQNWKPGQPDDWQGHGLGGGEDCAHFTPDGRWNDDVCQRPYHWVCEAGLGQTSQESH
# Assays:
# Assay in all cases: glycan array binding signal (z-score within array); higher = stronger binding
# Details in all cases: glycan notation: IUPAC condensed, linker removed; mutation: H262T
# [1] = target: Neu5Ac(a2-6)GlcNAc(b1-4)GlcNAc(b1-4)GlcNAc
# How it was run: (§1)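 Glycan array data came from 3228 arrays in the Consortium for Functional Glycomics database, and only arrays with an available protein sequence were kept. Glycan names were put into IUPAC-condensed notation, and columns mapping to the same glycan were averaged. The binding signal is a within-array Z-score, averaged across arrays of one protein sequence run at different concentrations or buffers and across linkers. A negative Z-score can be read as non-binding.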
# Neu5Ac(a2-8)Neu5Ac = target: Neu5Ac(a2-8)Neu5Ac
# How it was run: as §1
# [2] = target: Neu5Ac(a2-8)Neu5Ac(a2-3)Gal(b1-3)GalNAc(b1-4)[Neu5Ac(a2-3)]Gal(b1-4)Glc
# How it was run: as §1
# [3] = target: Neu5Ac(a2-8)Neu5Ac(a2-3)Gal(b1-3)GalNAc(b1-4)[Neu5Ac(a2-8)Neu5Ac(a2-3)]Gal(b1-4)Glc
# How it was run: as §1
# [4] = target: Neu5Ac(a2-8)Neu5Ac(a2-3)Gal(b1-4)Glc
# How it was run: as §1
# [5] = target: Neu5Ac(a2-8)Neu5Ac(a2-3)Gal(b1-4)GlcNAc
# How it was run: as §1
# [6] = target: Neu5Ac(a2-8)Neu5Ac(a2-3)[Gal(b1-3)GalNAc(b1-4)]Gal(b1-4)Glc
# How it was run: as §1
# [7] = target: Neu5Ac(a2-8)Neu5Ac(a2-3)[GalNAc(b1-4)]Gal(b1-4)Glc
# How it was run: as §1
# [8] = target: Neu5Ac(a2-8)Neu5Ac(a2-8)Neu5Ac
# How it was run: as §1
# [9] = target: Neu5Ac(a2-8)Neu5Ac(a2-8)Neu5Ac(a2-3)Gal(b1-4)Glc
# How it was run: as §1
# [10] = target: Neu5Ac(a2-8)Neu5Ac(a2-8)Neu5Ac(a2-3)[Gal(b1-3)GalNAc(b1-4)]Gal(b1-4)Glc
# How it was run: as §1
# [11] = target: Neu5Ac(a2-8)Neu5Ac(a2-8)Neu5Ac(a2-3)[GalNAc(b1-4)]Gal(b1-4)Glc
# How it was run: as §1
# [12] = target: Neu5Ac(a2-8)Neu5Ac(a2-8)Neu5Ac(a2-8)Neu5Ac(a2-3)[GalNAc(b1-4)]Gal(b1-4)Glc
# How it was run: as §1
# [13] = target: Neu5Ac(a2-8)Neu5Gc(a2-3)Gal(b1-4)GlcNAc
# How it was run: as §1
# [14] = target: Neu5Ac(b2-6)Gal(b1-4)GlcNAc
# How it was run: as §1
# Neu5Ac(b2-6)GalNAc = target: Neu5Ac(b2-6)GalNAc
# How it was run: as §1
# [15] = target: Neu5Ac9Ac(a2-3)Gal(b1-3)GlcNAc
# How it was run: as §1
# [16] = target: Neu5Ac9Ac(a2-3)Gal(b1-4)GlcNAc
# How it was run: as §1
# [17] = target: Neu5Ac9Ac(a2-6)Gal(b1-4)GlcNAc
# How it was run: as §1
# [18] = target: Neu5Gc(a2-3)Gal(b1-3)GlcNAc
# How it was run: as §1
# [19] = target: Neu5Gc(a2-3)Gal(b1-3)[Fuc(a1-4)]GlcNAc
# How it was run: as §1
# Neu5Gc(a2-3)Gal(b1-4)Glc = target: Neu5Gc(a2-3)Gal(b1-4)Glc
# How it was run: as §1
# [20] = target: Neu5Gc(a2-3)Gal(b1-4)GlcNAc
# How it was run: as §1
# [21] = target: Neu5Gc(a2-3)Gal(b1-4)GlcNAc(b1-3)Gal(b1-4)GlcNAc(b1-2)Man(a1-3)[Neu5Gc(a2-3)Gal(b1-4)GlcNAc(b1-3)Gal(b1-4)GlcNAc(b1-2)Man(a1-6)]Man(b1-4)GlcNAc(b1-4)GlcNAc
# How it was run: as §1
# [22] = target: Neu5Gc(a2-3)Gal(b1-4)[Fuc(a1-3)]GlcNAc
# How it was run: as §1
# [23] = target: Neu5Gc(a2-6)Gal(b1-4)GlcNAc
# How it was run: as §1
# Neu5Gc(a2-6)GalNAc = target: Neu5Gc(a2-6)GalNAc
# How it was run: as §1
# [24] = target: Neu5Gc(a2-8)Neu5Ac(a2-3)Gal(b1-4)GlcNAc
# How it was run: as §1
# [25] = target: Neu5Gc(a2-8)Neu5Gc(a2-3)Gal(b1-4)GlcNAc
# How it was run: as §1
# [26] = target: Neu5Gc(a2-8)Neu5Gc(a2-3)Gal(b1-4)GlcNAc(b1-3)Gal(b1-4)GlcNAc
# How it was run: as §1
# [27] = target: Neu5Gc(a2-8)Neu5Gc(a2-6)Gal(b1-4)GlcNAc
# How it was run: as §1
# [28] = target: Neu5Gc(b2-6)Gal(b1-4)GlcNAc
# How it was run: as §1
binder,measurement,setting,value
B1,glycan array binding signal (z-score),[1],-0.175
same,glycan array binding signal (z-score),Neu5Ac(a2-8)Neu5Ac,-0.171
same,glycan array binding signal (z-score),[2],-0.164
same,glycan array binding signal (z-score),[3],-0.168
same,glycan array binding signal (z-score),[4],-0.174
same,glycan array binding signal (z-score),[5],-0.175
same,glycan array binding signal (z-score),[6],-0.176
same,glycan array binding signal (z-score),[7],0.155
same,glycan array binding signal (z-score),[8],-0.166
same,glycan array binding signal (z-score),[9],-0.176
same,glycan array binding signal (z-score),[10],-0.173
same,glycan array binding signal (z-score),[11],0.002
same,glycan array binding signal (z-score),[12],-0.123
same,glycan array binding signal (z-score),[13],-0.177
same,glycan array binding signal (z-score),[14],-0.179
same,glycan array binding signal (z-score),Neu5Ac(b2-6)GalNAc,-0.177
same,glycan array binding signal (z-score),[15],-0.175
same,glycan array binding signal (z-score),[16],-0.169
same,glycan array binding signal (z-score),[17],-0.173
same,glycan array binding signal (z-score),[18],-0.171
same,glycan array binding signal (z-score),[19],-0.174
same,glycan array binding signal (z-score),Neu5Gc(a2-3)Gal(b1-4)Glc,-0.171
same,glycan array binding signal (z-score),[20],-0.175
same,glycan array binding signal (z-score),[21],-0.169
same,glycan array binding signal (z-score),[22],-0.166
same,glycan array binding signal (z-score),[23],-0.171
same,glycan array binding signal (z-score),Neu5Gc(a2-6)GalNAc,-0.17
same,glycan array binding signal (z-score),[24],-0.174
same,glycan array binding signal (z-score),[25],-0.176
same,glycan array binding signal (z-score),[26],-0.178
same,glycan array binding signal (z-score),[27],-0.173
same,glycan array binding signal (z-score),[28],-0.176
